# Data as given in PubChem BioAssay (Tox21).
# Several values for one entry are separate records, joined by “and”; a condition that tells them apart may be missing. Identical values can stand only once. This list was built around the results that the source calls inconclusive (neither active nor inactive); the mix of calls is not that of the screen. For some assays here: A potency beside an inconclusive call is a rough fit, not a confirmed value. Some compounds were tested as several samples or in several runs, with calls that do not always agree. Activity calls are given as the source filed them. Unless noted, calls come from the whole dose curve.
# Tests used:
# [1] = qHTS assay to identify small molecule agonists of the endoplasmic reticulum stress response signaling pathway (AID 1159516; active = well fitted activation curve with a large enough effect in the signal ratio in the repeat runs, not every such curve was filed as active; inconclusive = weak or mixed curves, or effect the other way; the % refers to the signal ratio; note: potency is the fitted concentration of half-maximal effect; for activation: % is set by controls: 0 for no effect and ±100 for the full control effect); conditions: ESRE-bla HeLa, ER stress beta-lactamase reporter, 5 h; activation: at 61 µM (top of the series) unless noted
# How it was run: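 Beta-lactamase expression from the ER stress response element in HeLa reporter cells is quantified with the LiveBLAzer B/G FRET substrate, read at 405 nm excitation after 2 hr at room temperature, following 5 hr compound treatment at 37 C.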
# [2] = qHTS assay to identify small molecule agonists of the AP-1 signaling pathway (AID 1159526); conditions: ME-180 AP-1-bla reporter, beta-lactamase FRET ratio, 5 h; activation: at 76.8 µM (top of the series) unless noted; note: potency is the fitted concentration of half-maximal effect; for activation: % is set by controls: 0 for no effect and ±100 for the full control effect
# [3] = target: Retinoic acid receptor RXR-alpha (Homo sapiens) (UniProt P19793); experiment: qHTS assay to identify small molecule agonists of the RXR signaling pathway (AID 1159527); conditions: HEK293T RXRa-UAS-bla, beta-lactamase ratio, 16 h; note: nearly all actives have a fitted effect of over 35% in size; note: potency is the fitted concentration of half-maximal effect; for activation: % is set by controls: 0 for no effect and ±100 for the full control effect
# How it was run: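 16 hr incubation of compound-treated RXR-alpha-UAS-bla HEK 293T cells (2% charcoal-stripped FBS, 37 C) preceded a 2 hr room-temperature LiveBLAzer FRET substrate step and blue/green fluorescence measurement.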
# [4] = qHTS assay to identify small molecule antagonists of the retinoid-related orphan receptor gamma (ROR-gamma) signaling pathway - cell viability counter screen (AID 1159520; active = well fitted curve in the direction sought with a large enough effect in the repeat runs; inconclusive = weak or mixed curves; inactive = no such curve, though single readings can be large; an effect the other way counts as inactive or inconclusive; note: potency is the fitted concentration of half-maximal effect; nearly all actives have a fitted effect of over 50% in size); conditions: Tet-on RORgamma CHO cells viability, ATP luminescence, 16 h; series mostly up to 92.4 µM
# How it was run: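 Cytotoxicity was read from cellular ATP (CellTiter-Glo luminescence) after 16 hr at 37 C with 1 uM doxycycline induction. The inducer was added 2 hr after compound transfer to Tet-on ROR gamma CHO cells.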
# [5] = target: Nuclear receptor ROR-gamma (Homo sapiens) (UniProt P51449); experiment: qHTS assay to identify small molecule antagonists of the retinoid-related orphan receptor gamma (ROR-gamma) signaling pathway (AID 1159521; active = well fitted curve in the direction sought with a large enough effect in the repeat runs; inconclusive = weak or mixed curves; inactive = no such curve, though single readings can be large; an effect the other way counts as inactive or inconclusive; note: potency is the fitted concentration of half-maximal effect; nearly all actives have a fitted effect of over 50% in size); conditions: Tet-on RORgamma CHO cells, RORE-luciferase, 16 h; series mostly up to 92.4 µM
# How it was run: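 Decreased RORE-driven luciferase luminescence indicates antagonism. Tet-on RORγ CHO cells received compound, then 1 uM final doxycycline 2 h later; signal read after 16 h incubation.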
# [6] = qHTS assay to identify small molecule antagonists of the vitamin D receptor (VDR) signaling pathway - cell viability counter screen (AID 743225; active = well fitted curve in the direction sought with a large enough effect in the repeat runs; inconclusive = weak or mixed curves; inactive = no such curve, though single readings can be large; an effect the other way counts as inactive or inconclusive; note: nearly all actives have a fitted effect of over 50% in size; note: potency is the fitted concentration of half-maximal effect; for viability change, negative = cytotoxic: % is set by controls: 0 for no effect and ±100 for the full control effect); conditions: VDR-bla HEK293T viability, CellTiter-Glo luminescence, 16 h; viability change, negative = cytotoxic: at 61 µM (top of the series) unless noted
# How it was run: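 Parallel cytotoxicity test: VDR-UAS-bla HEK 293T, 3 nM (final) 1-alpha,25-dihydroxyvitamin D3 with test compound, 16 h, 37C. Endpoint is CellTiter-Glo luminescence in the same wells.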
# [7] = qHTS assay to identify small molecule agonists of the RXR signaling pathway - cell viability counter screen (AID 1159529; active = well fitted curve in the direction sought with a large enough effect in the repeat runs; inconclusive = weak or mixed curves; inactive = no such curve, though single readings can be large; an effect the other way counts as inactive or inconclusive; note: nearly all actives have a fitted effect of over 50% in size; note: potency is the fitted concentration of half-maximal effect); conditions: RXR-alpha-bla HEK293T viability, CellTiter-Glo, 16 h; series mostly up to 76.8 µM
# How it was run: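 In this parallel viability measure, GeneBLAzer RXR-alpha HEK 293T cells (2% charcoal-stripped FBS) were given a 5 hr preincubation, treated with compounds 16 hr at 37 C, and read by CellTiter-Glo luminescence.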
# [8] = qHTS assay to identify small molecule agonists of the endoplasmic reticulum stress response signaling pathway - cell viability counter screen (AID 1159517); conditions: ESRE-bla HeLa viability, CellTiter-Glo luminescence, 5 h; series mostly up to 61 µM; note: nearly all actives have a fitted effect of over 50% in size; note: potency is the fitted concentration of half-maximal effect
# How it was run: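 After overnight attachment, ESRE-bla HeLa cells were treated with Tox21 library compounds for 5 hr. CellTiter-Glo luminescence, read 30 min post-addition at room temperature, reported viability.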
# [9] = qHTS assay to identify small molecule agonists of the AP-1 signaling pathway - cell viability counter screen (AID 1159525); conditions: ME-180 (cervical carcinoma) AP-1-bla cells viability, ATP luminescence, 5 h; series mostly up to 76.8 µM; note: nearly all actives have a fitted effect of over 55% in size
# How it was run: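 Intracellular ATP by Cell Titer Glo luminescence (30 min, RT) in the same ME-180 AP-1-bla wells after the 5 h compound exposure at 37 °C. Normalised to tetra n-octyl ammonium bromide and DMSO controls.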
# [10] = activation: at 76.8 µM (top of the series) unless noted
# Tags give direction and shape of the fitted curve or compound fluorescence and quenching.
# Chain of UniProt P19793 (P19793 whole entry, looked up): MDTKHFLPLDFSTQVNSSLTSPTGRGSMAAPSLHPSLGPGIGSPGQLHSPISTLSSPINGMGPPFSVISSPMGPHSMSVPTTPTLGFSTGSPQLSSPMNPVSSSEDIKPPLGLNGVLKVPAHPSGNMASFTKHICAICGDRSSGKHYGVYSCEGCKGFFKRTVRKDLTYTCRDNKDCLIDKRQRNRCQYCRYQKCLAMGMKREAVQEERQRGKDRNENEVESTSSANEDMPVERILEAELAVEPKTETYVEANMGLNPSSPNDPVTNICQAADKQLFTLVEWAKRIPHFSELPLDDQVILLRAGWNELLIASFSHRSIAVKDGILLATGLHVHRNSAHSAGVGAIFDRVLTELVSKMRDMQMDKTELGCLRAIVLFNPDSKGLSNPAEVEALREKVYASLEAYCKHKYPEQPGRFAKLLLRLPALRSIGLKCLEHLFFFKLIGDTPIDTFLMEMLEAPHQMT
compound,measurement,setting,value
CC1(C)O[C@@H]2C[C@H]3[C@@H]4C[C@H](F)C5=CC(=O)C=C[C@]5(C)[C@@]4(F)[C@@H](O)C[C@]3(C)[C@]2(C(=O)CO)O1,Potency,[1],inactive
same,Potency,[2],inactive
same,activation,[3]; at 35.3 µM (top of the series),inconclusive: 7.88%
same,activation,[3]; at 76.8 µM (top of the series),inconclusive: -7.05%
Oc1cccc(-c2c3nc(c(-c4cccc(O)c4)c4ccc([nH]4)c(-c4cccc(O)c4)c4nc(c(-c5cccc(O)c5)c5ccc2[nH]5)CC4)C=C3)c1,Potency,[1],"inconclusive: 9.52 µM [cytotoxic, partial curve]"
same,Potency,[4],"inconclusive: 33.5 µM [cytotoxic, single point]"
same,Potency,[5],"inconclusive: 33.5 µM [inhibitor, single point]"
same,Potency,[2],inconclusive: 26.8 µM [cytotoxic]
same,Potency,[3]; [10],"inconclusive: 26.8 µM [cytotoxic, single point]"
COC(=O)CCCCC(=O)OC,Potency,[6],"inconclusive: 0.0055 µM [rising, full curve]"
same,Potency,[1],inactive
same,activation,[3]; [10],inconclusive: 12.2%
O=c1[nH]c(=O)n([C@H]2CCCO2)cc1F,Potency,[1],inactive
same,Potency,[3]; [10],active: 17.4 µM
O=C(O)Cn1c(=O)n(Cc2ccc(Br)cc2F)c(=O)c2ccc(Cl)cc21,Potency,[1],inactive
same,Potency,[3]; [10],inactive
Nc1nc(N)nc(-c2ccccc2)n1,Potency,[1],inactive
same,Potency,[7],inactive
OCCOCCOCCOCCOCCO,Potency,[6],"inactive and inconclusive: 21.9 µM [cytotoxic, single point]"
same,Potency,[1],inactive
Cc1cc(NS(=O)(=O)c2ccc(N)cc2)no1,Potency,[8],"inconclusive: 23.9 µM [rising, single point]"
Cc1cc(C)nc(NS(=O)(=O)c2ccc(N)cc2)n1,Potency,[1],inactive
same,Potency,[3]; [10],active: 14 µM and inactive
CC(C)(C)CC(C)(C)c1ccc(O)c(-n2nc3ccccc3n2)c1,Potency,[6],"inconclusive: 26.8 µM [cytotoxic, single point]"
same,Potency,[8],"inconclusive: 0.0169 µM [cytotoxic, full curve, poor fit]"
same,Potency,[4],"inconclusive: 69.6 µM [cytotoxic, single point]"
same,Potency,[5],"active: 49.2 µM and inconclusive: 2.98 µM [inhibitor, single point]"
same,activation,[3]; [10],inconclusive: -22.9%
same,Potency,[7],"inconclusive: 39.4 µM [cytotoxic, partial curve] and inconclusive: 21.9 µM [cytotoxic, single point] and inconclusive: 23.9 µM [cytotoxic]"
Nc1ccc(O)c(N)c1,Potency,[8],active: 54.9 µM
same,Potency,[4],"inconclusive: 38.3 µM [cytotoxic, partial curve, poor fit]"
same,Potency,[9],inactive
CC(COCC(C)OC(=O)c1ccccc1)OC(=O)c1ccccc1 (stereo unspecified),Potency,[1],inactive
same,Potency,[3]; [10],"inconclusive: 24.3 µM [rising, partial curve, poor fit]"
same,activation,[3]; [10],inconclusive: -33.6%
CCCCCCOCCOCCO,Potency,[1],"inconclusive: 21.9 µM [activator, single point] and inactive"
same,Potency,[3]; [10],active: 43.6 µM
CCCCCCOC(C)=O,Potency,[1],"inconclusive: 61.6 µM [rising, single point]"
same,Potency,[3]; [10],"inactive and inconclusive: 43.6 µM [activator, partial curve]"
same,Potency,[7],"inconclusive: 38.9 µM [cytotoxic, partial curve]"
Cc1ccc(S(N)(=O)=O)cc1,Potency,[6],"inconclusive: 0.194 µM [cytotoxic, single point]"
same,Potency,[1],inactive
c1ccc2cc3c(ccc4ccccc43)cc2c1,Potency,[1],"inconclusive: 49.1 µM [activator, partial curve] and inconclusive: 1.23 µM [fluorescent, partial curve, poor fit]"
same,Potency,[3]; [10],"inconclusive: 11 µM [activator, full curve]"
CS(=O)(=O)OCCCCOS(C)(=O)=O,Potency,[1],inactive
same,Potency,[3]; [10],active: 17.4 µM
O=C1NC(=O)c2ccccc21,Potency,[6],"inconclusive: 0.195 µM [cytotoxic, single point]"
same,Potency,[1],inactive
same,Potency,[3]; [10],"inactive and inconclusive: 20 µM [activator, partial curve]"
CCCCCCCCCCCC(=O)OC,Potency,[1],inactive
same,Potency,[7],inactive
COC(=O)Nc1nc2ccc(S(=O)c3ccccc3)cc2[nH]1 (stereo unspecified),Potency,[6],"inconclusive: 12.3 µM [rising, full curve, poor fit]"
same,Potency,[8],inactive
same,Potency,[4],"inconclusive: 13.3 µM [cytotoxic, partial curve]"
same,Potency,[5],"inconclusive: 54.4 µM [inhibitor, partial curve]"
same,Potency,[2],"inactive and inconclusive: 15.1 µM [activator, partial curve, poor fit]"
